{
  "source": "PubChem BioAssay AID1508623",
  "about": "(National Center for Advancing Translational Sciences (NCATS), 2021)",
  "note": "The whole screen tested about 48,000 compounds, of which about 450 (0.94%) were called active. Inconclusive results, whose numbers are uncertain, are shown with a selection of clear calls. Calls follow the shape of the dose curve; as a rule, active = well fitted inhibition curve with a large enough effect; inconclusive = small, poorly fitted or top-dose-only effect; inactive = no such curve, though single readings can be large or run the other way. Where the call is inconclusive, the potency comes from a doubtful curve fit. Potency is read from the fitted curve at half-maximal effect; tags tell the direction and shape of the fitted curve.",
  "data": [
    {"assay": "Primary qHTS for Identification of Small Molecule Inhibitors of Huntingtin Promoter Activity; also: nearly all actives have a fitted effect of over 50% in size", "details": "HEK293 HTT promoter firefly luciferase reporter (activity 0% = vehicle and -100% = no light), 24 h; series mostly up to 57.5 µM", "summary_of_the_method": "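Quantitative HTS used concentration series of up to 57.5 uM final on HEK293 luciferase reporter cells, 24 h at 37 degrees C. Readout was Dual-Glo firefly luminescence.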", "values": [
      {"smiles": "Cc1ccc(CCNC(=O)C2CCCN(Cc3nc(-c4cccc(Cl)c4)oc3C)C2)cc1", "note": "(configuration not stated)", "Potency": "inactive"},
      {"smiles": "COc1ccc(/C=C/c2nc(C#N)c(N3CCN(c4ccccc4)CC3)o2)cc1OC", "Potency": "inactive"},
      {"smiles": "Cc1ccc2nc(-c3ccccn3)c(Nc3ccc(F)cc3)n2c1", "Potency": "inconclusive: 39.8 µM [inhibitor, single point]"},
      {"smiles": "CCOC(=O)c1cc(-c2ccccc2)n(CCCC(=O)Nc2ccc(CC)cc2)c1C", "Potency": "inconclusive: 35.5 µM [inhibitor, partial curve, poor fit]"},
      {"smiles": "Cc1ccc(NC(=O)CSc2nc3ccccc3c3nc(CCn4c(C)nc5ccccc54)nn23)cc1F", "Potency": "inconclusive: 39.8 µM [inhibitor, single point]"},
      {"smiles": "CCOc1ccccc1NS(=O)(=O)c1c(-c2ccc(C)cc2)csc1C(=O)OC", "Potency": "inconclusive: 22.4 µM [inhibitor, single point]"},
      {"smiles": "Fc1ccc(CNc2ncnc3c2c(-c2ccccc2)cn3-c2ccccc2)cc1", "Potency": "inconclusive: 31.6 µM [inhibitor, single point]"},
      {"smiles": "CC(C)(C)C1CCc2nc(NC(=O)Cc3ccc(Cl)cc3)sc2C1", "note": "(configuration not stated)", "Potency": "inconclusive: 20 µM [inhibitor, single point]"},
      {"smiles": "CCOc1ccc(C2c3c(-c4ccccc4O)n[nH]c3C(=O)N2Cc2ccncc2)cc1", "note": "(configuration not stated)", "Potency": "inconclusive: 22.4 µM [inhibitor, partial curve, poor fit]"},
      {"smiles": "Cc1ccc(NC(=O)c2cc(S(=O)(=O)N3CCOCC3)c(Cl)cc2Cl)cc1", "Potency": "inconclusive: 1.58 µM [inhibitor, full curve, poor fit]"},
      {"smiles": "CCc1ccc(CNC(=O)c2ccc(CSc3nc4ccncc4n3Cc3ccccc3)cc2)cc1", "Potency": "inconclusive: 39.8 µM [inhibitor, single point]"},
      {"smiles": "CCN1c2ccccc2-c2nc(SCC(=O)Nc3ccc(C)c(Cl)c3)ncc2S1(=O)=O", "Potency": "inconclusive: 39.8 µM [inhibitor, single point]"},
      {"smiles": "Cc1ccc2c(CNCCc3ccc(Cl)cc3)c(C(=O)O)n(Cc3ccc(F)cc3)c2c1", "Potency": "inconclusive: 39.8 µM [inhibitor, single point]"},
      {"smiles": "CCOc1ccc(CNC(=O)c2ccc3nc(Cc4ccc(OC)cc4)oc3c2)cc1OC", "Potency": "inconclusive: 22.4 µM [inhibitor, partial curve, poor fit]"},
      {"smiles": "Cc1ccc(Cl)cc1NC(=O)c1ccc(-c2nc(CSc3ccccc3)c(C)o2)cc1", "Potency": "inconclusive: 11.2 µM [inhibitor, partial curve]"},
      {"smiles": "O=C1NC(=O)[C@@H](c2cn3c4c(cccc24)CCC3)[C@H]1c1c[nH]c2ccccc12", "Potency": "inconclusive: 5.44 µM [inhibitor, partial curve]"},
      {"smiles": "O=c1c2c3c(sc2nnn1Cc1ccc(Br)cc1)CCCC3", "Potency": "inconclusive: 31.6 µM [inhibitor, partial curve, poor fit]"},
      {"smiles": "O=S(=O)(NCCc1csc(-c2ccc(F)cc2)n1)c1ccc(Cl)cc1", "Potency": "inconclusive: 35.5 µM [inhibitor, single point]"},
      {"smiles": "Cc1ccc(OCCCn2c(C3CC(=O)N(c4cccc(Cl)c4)C3)nc3ccccc32)c(C)c1", "note": "(configuration not stated)", "Potency": "inconclusive: 39.8 µM [inhibitor, single point]"},
      {"smiles": "CC1CCCCN1CCCOC(=O)c1ccc(OC2CCCCC2)cc1", "note": "(configuration not stated)", "Potency": "inactive"},
      {"smiles": "Cc1ccc(CN2CCSc3ccc(C(=O)N4CCN(c5cccc(C)c5C)CC4)cc32)cc1", "Potency": "inconclusive: 3.98 µM [inhibitor, full curve, poor fit]"},
      {"smiles": "O=C(CSc1nccn1Cc1ccc(Cl)cc1)NC1CCCC1", "Potency": "inconclusive: 39.8 µM [inhibitor, single point]"},
      {"smiles": "COc1ccc(-c2cnc(C)o2)cc1S(=O)(=O)Nc1ccc(C)c(F)c1", "Potency": "inconclusive: 3.98 µM [inhibitor, partial curve, poor fit]"},
      {"smiles": "CCCN(C(=O)c1cc2c(s1)-c1ccccc1SC2)c1ccccc1F", "Potency": "inconclusive: 31.6 µM [inhibitor, single point]"},
      {"smiles": "CCOC(=O)c1c(C)c(-c2ccccc2)n(CC(=O)Nc2cc(OC)cc(OC)c2)c1C", "Potency": "inconclusive: 39.8 µM [inhibitor, single point]"},
      {"smiles": "O=c1ccn([C@@H]2O[C@H](CO)[C@H](O)[C@H]2O)c(=O)[nH]1", "Potency": "inconclusive: 30.6 µM [inhibitor, single point]"},
      {"smiles": "CCc1cc(C(=O)Nc2c(C)nn(Cc3ccc(C)cc3)c2C)no1", "Potency": "inconclusive: 15.8 µM [inhibitor, partial curve]"},
      {"smiles": "Cc1ccc(NC(=O)CN2CCCN(Cc3cc(C)ccc3C)S2(=O)=O)c(Cl)c1", "Potency": "inconclusive: 39.8 µM [inhibitor, single point]"},
      {"smiles": "COc1cccc(N2CCN(C(=O)C3CCC(CNS(=O)(=O)c4ccc(Br)s4)CC3)CC2)c1", "note": "(configuration not stated)", "Potency": "inconclusive: 8.91 µM [inhibitor, partial curve, poor fit]"},
      {"smiles": "COc1ccc(NC(=O)CSc2nnc(-c3ccc(C)cc3)o2)cc1", "Potency": "inactive"},
      {"smiles": "COc1cc(-c2ccno2)ccc1S(=O)(=O)N1CCN(c2cc(C)ccc2C)CC1", "Potency": "inconclusive: 25.1 µM [inhibitor, single point]"},
      {"smiles": "Cc1nc2nncn2c(N2CCN(c3ccccc3)CC2)c1C", "Potency": "inconclusive: 17.8 µM [inhibitor, partial curve, poor fit]"},
      {"smiles": "COc1ccccc1/C=C/c1nc(C#N)c(N2CCCCC2)o1", "Potency": "inactive"},
      {"smiles": "CN(C)CCOc1ccc(-c2nc(-c3ccc4c(c3)CCC4=NO)c(-c3ccncc3)[nH]2)cc1", "Potency": "inactive"},
      {"smiles": "COc1ccc(-n2c(/C=C/c3ccccc3F)nc3cc(OC)c(OC)cc3c2=O)cc1Cl", "Potency": "inconclusive: 20 µM [inhibitor, partial curve, poor fit]"},
      {"smiles": "Cc1ccccc1Cn1c(C(=O)O)c(CNCc2cccc(F)c2)c2ccccc21", "Potency": "inactive"},
      {"smiles": "Cn1cc(CN(C(=O)Nc2ccc(Cl)c(Cl)c2)C2CCCCC2)c2ccccc21", "Potency": "inactive"},
      {"smiles": "CCN(CC)C(=O)C1CCN(S(=O)(=O)c2ccc3c(c2)CCCN3C(C)=O)CC1", "Potency": "inconclusive: 15.8 µM [inhibitor, partial curve, poor fit]"},
      {"smiles": "Cc1ccc(N2CC(NC(=O)/C=C\\c3ccc4c(c3)OCO4)CC2=O)cc1C", "note": "(configuration not stated)", "Potency": "inconclusive: 20 µM [inhibitor, partial curve]"},
      {"smiles": "COc1ccc(-n2ccnc(NCc3ccc(Cl)cc3)c2=O)cc1", "Potency": "inconclusive: 28.2 µM [inhibitor, partial curve]"},
      {"smiles": "COc1ccc(NC(=O)CCc2nnc3n(C)c(=O)c4sccc4n23)cc1", "Potency": "inactive"},
      {"smiles": "Cc1c(Cl)cccc1-c1ccc(CNc2ccc3[nH]c(=O)[nH]c3c2)o1", "Potency": "inconclusive: 22.4 µM [inhibitor, partial curve, poor fit]"},
      {"smiles": "CC1CCN(S(=O)(=O)c2ccc3c(c2)oc(=O)n3CC(=O)NCc2ccc(F)cc2)CC1", "Potency": "inconclusive: 22.4 µM [inhibitor, partial curve, poor fit]"},
      {"smiles": "COc1ccc(NC(=O)c2oc3ccccc3c2NC(=O)c2cccc(F)c2)c(OC)c1", "Potency": "inactive"},
      {"smiles": "Cc1ccn2c(Nc3ccccc3C)c(-c3ccccn3)nc2c1", "Potency": "inconclusive: 39.8 µM [inhibitor, single point]"},
      {"smiles": "CCn1c(=O)n(CC)c2cc(N3CCCCC3)c(NC(=O)Nc3cc(C)cc(C)c3)cc21", "Potency": "inconclusive: 28.2 µM [inhibitor, single point]"},
      {"smiles": "COc1ccc(Cl)cc1NC(=O)Cn1c(=O)n(Cc2ccco2)c(=O)c2cccnc21", "Potency": "inconclusive: 35.5 µM [inhibitor, partial curve, poor fit]"},
      {"smiles": "COc1ccc(C(=O)NCCn2cc(SCC(=O)Nc3cccc(C)c3)c3ccccc32)cc1", "Potency": "inconclusive: 25.1 µM [inhibitor, partial curve, poor fit]"},
      {"smiles": "COCCc1nn2c(=O)cc(COC(=O)c3ccc(OC)c(OC)c3)nc2s1", "Potency": "inactive"},
      {"smiles": "CCOC(=O)C1CCN(C(=O)Cn2c(=O)cc(C)c3c(C)nn(C)c32)CC1", "Potency": "inconclusive: 17.8 µM [inhibitor, partial curve, poor fit]"},
      {"smiles": "COc1cc(-c2nc3nc[nH]n3c2Nc2ccc(C(C)C)cc2)ccc1O", "Potency": "inactive"},
      {"smiles": "COc1ccc(OC)c(S(=O)(=O)N2CCC(c3ccncc3)CC2)c1", "Potency": "inconclusive: 28.2 µM [inhibitor, partial curve]"},
      {"smiles": "O=C(Nc1cc2cc[nH]c2cn1)c1ccccc1", "Potency": "inactive"},
      {"smiles": "COc1ccc(S(=O)(=O)Nc2cccnc2Nc2ccc(O)cc2)cc1", "Potency": "inconclusive: 0.0968 µM [inhibitor, full curve]"},
      {"smiles": "CCOCCCNC(=O)NC(C)c1c(-n2cccc2)sc2c1CCN(CC)C2", "note": "(configuration not stated)", "Potency": "inactive"},
      {"smiles": "CCc1ccc(-n2c(SCc3ccccc3F)nc3[nH]ncc3c2=O)cc1", "Potency": "inconclusive: 35.5 µM [inhibitor, single point]"},
      {"smiles": "O=C1NCCc2[nH]c(-c3ccncc3)cc21", "Potency": "inconclusive: 6.11 µM [inhibitor, full curve]"},
      {"smiles": "O=C1c2[nH]nc(-c3ccccc3O)c2C(c2ccc(Cl)cc2)N1Cc1ccco1", "note": "(configuration not stated)", "Potency": "inconclusive: 25.1 µM [inhibitor, single point]"},
      {"smiles": "CCOc1ccc(-c2cc(OC(=O)c3ccc(F)cc3)c3c(C)oc(C)c3c(=O)c2)cc1", "Potency": "inconclusive: 22.4 µM [inhibitor, partial curve, poor fit]"},
      {"smiles": "CCOC(=O)C1CCCN(S(=O)(=O)c2ccc3c(c2)CCCN3C(C)=O)C1", "note": "(configuration not stated)", "Potency": "inconclusive: 15.8 µM [inhibitor, partial curve]"},
      {"smiles": "COc1ccc(CCNC(=O)c2cc3c(-c4ccccc4F)nn(C)c3s2)c(OC)c1", "Potency": "inconclusive: 35.5 µM [inhibitor, single point]"},
      {"smiles": "CCOC(=O)c1cccc(NC(=O)c2cc3c(=O)n(Cc4ccccc4)ccc3nc2C)c1", "Potency": "inconclusive: 25.1 µM [inhibitor, partial curve, poor fit]"}
    ]}
  ]
}
